Data: PubChem BioAssay AID1645882 (National Center for Advancing Translational Sciences (NCATS), 2021)
Among all 16,000 compounds or so, about 120 (0.75%) were called active. Inconclusive results (about 4%) are left out. Calls come from the whole dose curve; as a rule, active = well fitted inhibition curve with a large enough effect; inconclusive = small, poorly fitted or top-dose-only effect; inactive = no such curve, though single readings can be large or run the other way. The list shows a part of the results.

The molecules below were run against Rap guanine nucleotide exchange factor 3 (Homo sapiens) (UniProt O95398) (assay: Validation qHTS for antagonist of cAMP-regulated guanine nucleotide exchange factor 3 (EPAC1)). Details: EPAC1 Rap1B-BODIPY-GDP exchange, fluorescence; series mostly up to 150 µM; activity change, negative = inhibition: at the top concentration.
Sequence of UniProt O95398 (O95398 whole entry, looked up): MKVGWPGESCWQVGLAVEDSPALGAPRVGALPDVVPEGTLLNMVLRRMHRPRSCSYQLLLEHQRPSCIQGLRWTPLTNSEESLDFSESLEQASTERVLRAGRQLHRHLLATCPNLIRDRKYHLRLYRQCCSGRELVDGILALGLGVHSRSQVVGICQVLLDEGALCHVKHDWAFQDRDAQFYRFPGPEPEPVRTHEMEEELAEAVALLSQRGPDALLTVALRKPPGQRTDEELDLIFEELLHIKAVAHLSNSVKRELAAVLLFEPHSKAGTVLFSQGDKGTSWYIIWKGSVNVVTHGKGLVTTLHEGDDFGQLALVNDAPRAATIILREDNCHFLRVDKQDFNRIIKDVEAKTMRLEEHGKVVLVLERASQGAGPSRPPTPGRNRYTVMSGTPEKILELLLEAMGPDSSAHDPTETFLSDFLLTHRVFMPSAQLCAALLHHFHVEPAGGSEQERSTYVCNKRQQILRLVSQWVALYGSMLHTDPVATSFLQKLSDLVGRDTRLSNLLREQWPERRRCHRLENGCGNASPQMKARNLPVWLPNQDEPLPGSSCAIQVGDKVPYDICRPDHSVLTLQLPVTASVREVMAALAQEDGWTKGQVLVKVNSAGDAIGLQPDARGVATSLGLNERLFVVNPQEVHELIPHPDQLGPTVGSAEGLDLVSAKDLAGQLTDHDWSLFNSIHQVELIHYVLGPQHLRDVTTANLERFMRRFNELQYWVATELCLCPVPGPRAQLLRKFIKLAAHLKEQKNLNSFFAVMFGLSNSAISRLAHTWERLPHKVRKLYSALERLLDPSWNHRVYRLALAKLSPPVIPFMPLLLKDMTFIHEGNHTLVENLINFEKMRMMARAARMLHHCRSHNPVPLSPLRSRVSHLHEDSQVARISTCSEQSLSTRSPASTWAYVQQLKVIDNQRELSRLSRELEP
Outline: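 Nucleotide exchange followed as fluorescence loss when BODIPY-GDP leaves Rap1B (480 nm excitation, 540 nm emission), read at 5 min intervals over 30 min. Reaction: 100 nM EPAC1, 250 nM RAP1B-BODIPY-GDP, 50 uM GDP; ATA and DMSO define normalization.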
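Note: plate controls were DMSO for no effect and ATA control for full effect; nearly all actives have a fitted effect of over 75% in size.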

Activity change, negative = inhibition, inactive:
CN1CCN(c2c(F)cc3c(=O)c(C(=O)O)cn(CCF)c3c2F)CC1 13.5%, CC1=C(/C=C/C(C)=C/C=C/C(C)=C/C=C/C=C(C)/C=C/C=C(C)/C=C/C2=C(C)C(=O)C(O)CC2(C)C)C(C)(C)CC(O)C1=O (stereo not drawn) 17%, Nc1ncnc2c1c(I)cn2[C@@H]1C[C@H](N)[C@@H](O)[C@H]1O -1.55% [at 75.8 µM], CN(C)c1ccc(-c2nc(N(C)Cc3ccco3)c3ccccc3n2)cc1 -18.7%, CNc1cc(OC)c(C(=O)N[C@H]2CCN(Cc3ccccc3)[C@H]2C)cc1Cl 14.6%, Clc1ccccc1-c1nc(-n2ccnc2)c2ccccc2n1 -0.47%, Cc1noc(C)c1C(=O)N1CCC2(CCCN(C(=O)Nc3cccc(C#N)c3)C2)CC1 -14.8%, COc1ccccc1CN1CC[C@@]2(CCCN(C(=O)c3ccco3)C2)C1 24.2%, COc1ccc(CCN(C)CCCC(C#N)(c2cc(OC)c(OC)c(OC)c2)C(C)C)cc1OC (stereo not drawn), Nc1cc(C(Cl)=C(Cl)Cl)c(S(N)(=O)=O)cc1S(N)(=O)=O, CCCCCCCCCCCCCCCCCC(=O)OCCO -13.4%, N#Cc1ccc(CN2CC[C@@]3(CCCN(C(=O)c4cc(C(F)(F)F)cc(C(F)(F)F)c4)C3)C2)cc1 -18.5%, CC[C@H](C)C(=O)O[C@H]1CCC=C2C=C[C@H](C)[C@H](CC[C@@H]3C[C@@H](O)CC(=O)O3)[C@H]21, COCC(=O)N1CCC2(CC1)CCN(C(=O)Nc1cccc(C#N)c1)CC2 16.3%, COc1ccc(CN2Cc3ccccc3OC(c3ccccc3OC)C2)c(O)c1 (stereo not drawn) 0.335%, C[C@@H]1CN(Cc2ccc3c(c2)CN(Cc2cccn2-c2cccnc2)CCO3)C[C@H](C)O1 10.4%, CC1(C)CCC[C@]2(C)C3CC(=O)O[C@@]3(C)CC[C@H]12 (stereo partly drawn) 9.29%, O=C(Nc1cccc(F)c1)N1CCC2(CC1)CCN(C(=O)c1cccc(F)c1)CC2 12.9%, CC(C)C[C@@H](COc1ccccc1)N1CCN(C)CCC1=O 5.09%, CC(C)C[C@H](NC(=O)CNC(=O)[C@H](Cc1ccc(O)cc1)NC(=O)[C@H](CO)NC(=O)[C@H](Cc1c[nH]c2ccccc12)NC(=O)[C@H](Cc1cnc[nH]1)NC(=O)[C@@H]1CCC(=O)N1)C(=O)N[C@@H](CCCN=C(N)N)C(=O)N1CCC[C@H]1C(=O)NCC(N)=O (stereo in doubt) 16.9%, COc1ccc2[nH]cc(CCNc3ccnc(-c4ccoc4)n3)c2c1 -7.57%, CC1(C)S[C@@H]2[C@H](NC(=O)Cc3ccccc3)C(=O)N2[C@H]1C(=O)O (tested in a mixture with another compound) 16.4%, CNc1ncnc2ccc(-c3ccccc3OC)cc12 25%, COc1c2occc2c(OC)c2c(=O)cc(C)oc12, CC(C)c1c(C(=O)NCCN2CCOCC2)cnn1-c1nccc(-c2ccco2)n1 10.2%, O=C(N[C@@H]1c2ccccc2C2(CCN(Cc3c(O)ccc4ccccc34)CC2)[C@H]1O)c1ccccc1 5.29%, CC[C@H](C)[C@H](NC(=O)[C@H](CCCN=C(N)N)NC(=O)[C@H](CCCN=C(N)N)NC(=O)[C@H](CC(C)C)NC(=O)[C@H](Cc1ccccc1)NC(=O)CNC(=O)CN)C(=O)N[C@@H](CCCN=C(N)N)C(=O)N1CCC[C@H]1C(=O)N[C@@H](CCCCN)C(=O)N[C@@H](CC(C)C)C(=O)N[C@@H](CCCCN)C(=O)O 11.8% [at 15.3 µM], C1CNCCN1, COc1cccc(Cn2c(=O)cnc3cnc(OCc4ccccc4)nc32)c1 2.62%, COc1ncc2nc(-c3cc(F)cc(F)c3)c(=O)n(C)c2n1 10.3%, Cc1c(C(=O)NCCCc2ccncc2)cnn1-c1ncc2c(n1)-c1ccccc1CC2 18.8%, CN(CCO)C(=O)c1cn(C2CCCN(Cc3cccc4ccccc34)C2)nn1 (stereo not drawn) 12.6%, COc1ccc(Oc2ncc3ncc(=O)n(C4CC4)c3n2)cc1 14.4%, CN(C)Cc1ccccc1-c1ccc2ncnc(N(C)C)c2c1 -1.95%, O=C(C[N+]1(CC(O)c2ccccc2)CCOCC1)c1ccccc1 (stereo not drawn) -20.5%, COc1cc(=O)n2c(c1C(=O)N(C)Cc1nonc1C)CCN(C(=O)c1cccc(C)c1C)CC2 -5.14%, C[C@H](CCC(=O)O)C1CC[C@H]2C3CC[C@@H]4C[C@H](O)CC[C@]4(C)C3C[C@H](O)[C@]12C (stereo partly drawn) -2.57%, COc1ccccc1CNc1nc(-c2cccc(NS(C)(=O)=O)c2)nc2ccccc12 -12.4%, COc1ncc2nc(-c3ccc(Cl)cc3)c(=O)n(CCC#N)c2n1 -0.121%, CCCCC/C=C\C[C@@H](O)/C=C/C=C/C=C\[C@@H](O)CCCC(=O)O 0.23% [at 1.57 µM], Cc1[nH]cnc1C[C@H]1CCc2c(C)c3ccccc3n2C1=O 11.8%, CCC(C)N(C)C(=O)c1cc2ccccc2c(-c2ccccc2Cl)n1 (stereo not drawn), COc1ccc(-c2nc3cnc(N4CCNCC4)nc3n(CCC#N)c2=O)cc1 17.3%, Cc1ccc2c(c1)cc(CN(C)Cc1nc(C)cs1)c(=O)n2C 7.65%, Cc1cnc(CNc2ncnc3ccc(-c4ccccc4CN(C)C)cc23)cn1 25.8%, COc1cc2c(cc1C(F)(F)F)N(C(=O)Nc1cc(F)cc(-c3cccnc3)c1)CC2 -17%, O=c1cnc2cnc(Oc3ccccc3)nc2n1C1CC1 -0.744%, OC1C(O)C(O)C(O)C(O)C1O (stereo not drawn) 7.45%, CC(C)(CNC(=O)c1cnn(-c2ncc3c(n2)-c2ccccc2CC3)c1C1CC1)N1CCOCC1 14.1%, Nc1nc2ccc(Cl)cc2c2nc(-c3ccco3)nn12, CN=C(NC)NCc1ccccc1 23.5%, C=C[C@@H]1c2cc(C)ccc2N(S(=O)(=O)c2ccc(C)cc2)[C@H](c2ccccc2C(F)(F)F)C1(C#N)C#N 9.89%, CCC1CN(CCNC(=O)c2cccc3nccnc23)Cc2cc(OC)ccc2O1 (stereo not drawn) 14.2%, COc1ccc(CNc2nc(-c3ccc(N(C)C)cc3)nc3ccccc23)c(OC)c1 -14%, COc1ccccc1CN1CCCC2(CCNCC2)C1 8.56%, O=c1[nH]c(=O)n(C2CCCO2)cc1F (stereo not drawn) 15.2%, CC(NCCC(c1ccccc1)c1ccccc1)c1ccccc1 (stereo not drawn) 16.7%, CCCCCCCCCCCCOCCCN 9.97%
